Consider 115 sequences from the BET-seq Pho4 binding data (Le et al. 2018).

The list shows a part of the results. Values were computed here from the reads of four pooled replicates and scatter widely.

In this test the target is T1, Pho4 (S. cerevisiae) (UniProt P07270).
T1 sequence: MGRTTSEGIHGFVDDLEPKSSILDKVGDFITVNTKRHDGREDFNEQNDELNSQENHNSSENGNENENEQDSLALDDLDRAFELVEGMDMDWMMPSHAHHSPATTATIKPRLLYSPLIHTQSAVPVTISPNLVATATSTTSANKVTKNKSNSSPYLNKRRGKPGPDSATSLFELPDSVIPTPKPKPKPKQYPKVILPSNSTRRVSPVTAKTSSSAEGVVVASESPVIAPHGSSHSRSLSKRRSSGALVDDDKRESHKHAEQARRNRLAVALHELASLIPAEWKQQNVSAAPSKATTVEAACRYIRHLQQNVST
In words: relative binding free energy (BET-seq); higher = weaker binding. Particulars: reference: library average.
As for TGTAGCACGTGAGTAA, the “relative binding free energy” value is 0.03 kcal/mol.

Turning to GTGTGCACGTGGTCTG, the “relative binding free energy” value is -0.13 kcal/mol.

For the sequence AGCAGCACGTGGTGTA, the “relative binding free energy” value is -0.18 kcal/mol.

Turning to TGAGTCACGTGAATGT, the “relative binding free energy” value was determined as 0.34 kcal/mol.

Take GTGGTCACGTGCAAGT: the “relative binding free energy” value came to 0.04 kcal/mol.

Turning to TGGGTCACGTGCGCTA, the “relative binding free energy” value was -0.01 kcal/mol.

In the case of GCGATCACGTGTGAGG, the “relative binding free energy” value came out at 0.3 kcal/mol.

For TGGTGCACGTGCCTGT, the “relative binding free energy” value was -0.23 kcal/mol.

For the sequence AAATGCACGTGTGAGT, the “relative binding free energy” value was 0.19 kcal/mol.

Consider GGTGACACGTGGTGGT, for which the “relative binding free energy” value was found to be 0.03 kcal/mol.

Take TAGTACACGTGTGTCG: the “relative binding free energy” value was determined as 0.11 kcal/mol.

GGTATCACGTGGTGTA: the “relative binding free energy” value is 0.12 kcal/mol.

For the sequence AATGTCACGTGTGTTT, the “relative binding free energy” value was 0.13 kcal/mol.

With AGAGGCACGTGGTGTT, the “relative binding free energy” value is -0.2 kcal/mol.

For the sequence GGTGGCACGTGGCAGA, the “relative binding free energy” value is -0.09 kcal/mol.

Consider GCTTGCACGTGGGGTG, for which the “relative binding free energy” value was -0.11 kcal/mol.

Regarding TGTTTCACGTGTGGTA, the “relative binding free energy” value came out at 0.34 kcal/mol.

Take GACGTCACGTGCTGTG: the “relative binding free energy” value amounted to 0.14 kcal/mol.

As for TTAAGCACGTGGAGTT, the “relative binding free energy” value was determined as 0.02 kcal/mol.

Take TCTAGCACGTGGGTGC: the “relative binding free energy” value is -0.24 kcal/mol.

On to AGTGCCACGTGAGTAT, for which the “relative binding free energy” value was found to be 0.28 kcal/mol.

For ACGTGCACGTGTGGGT, the “relative binding free energy” value came out at 0.01 kcal/mol.

For GTGGGCACGTGTGGAT, the “relative binding free energy” value came out at 0.13 kcal/mol.

Consider GGTGGCACGTGAGGGG, for which the “relative binding free energy” value was 0.13 kcal/mol.

With AAGGGCACGTGGGCTC, the “relative binding free energy” value is -0.2 kcal/mol.

As to GGAGGCACGTGGAAGG, the “relative binding free energy” value is -0.1 kcal/mol.

In the case of TCTTGCACGTGTTGTA, the “relative binding free energy” value was -0.14 kcal/mol.

Consider CTTGGCACGTGGAGGA, for which the “relative binding free energy” value was -0.17 kcal/mol.

As for GTTCTCACGTGGTCTT, the “relative binding free energy” value was found to be 0.17 kcal/mol.

On to TTTCACACGTGTTGGT, for which the “relative binding free energy” value was found to be 0.18 kcal/mol.

TTCGTCACGTGTTCGG: the “relative binding free energy” value was found to be 0.17 kcal/mol.

On to TGGTCCACGTGTTGGA, for which the “relative binding free energy” value was 0.15 kcal/mol.

For the sequence GATTCCACGTGGGGTT, the “relative binding free energy” value turned out to be 0.02 kcal/mol.

As to GGGGTCACGTGTGGCC, the “relative binding free energy” value amounted to 0.25 kcal/mol.

Regarding TAGATCACGTGTTATA, the “relative binding free energy” value was found to be 0.12 kcal/mol.

As for GGTGCCACGTGGGTAC, the “relative binding free energy” value was -0.12 kcal/mol.

On to GAATTCACGTGGGCTA, for which the “relative binding free energy” value was 0.37 kcal/mol.

As for TCTTTCACGTGATTTG, the “relative binding free energy” value stood at 0.24 kcal/mol.

GTTGTCACGTGTGACA: the “relative binding free energy” value worked out at 0.03 kcal/mol.

Consider TGTCGCACGTGTGAAT, for which the “relative binding free energy” value came to 0.03 kcal/mol.

Regarding TATAGCACGTGGGAGT, the “relative binding free energy” value is -0.25 kcal/mol.

As for AGTTGCACGTGTAATG, the “relative binding free energy” value is -0.02 kcal/mol.

As to AGTTGCACGTGAGAAT, the “relative binding free energy” value is 0.24 kcal/mol.

Regarding TTTGTCACGTGAAGAT, the “relative binding free energy” value was determined as 0.42 kcal/mol.

TGATTCACGTGATACT: the “relative binding free energy” value worked out at 0.25 kcal/mol.

On to TGATGCACGTGTAATG, for which the “relative binding free energy” value was found to be 0.05 kcal/mol.

Consider GGGCGCACGTGGGGGA, for which the “relative binding free energy” value is -0.24 kcal/mol.

TCGTGCACGTGATGGG: the “relative binding free energy” value is 0.23 kcal/mol.

On to TAGATCACGTGTGTAT, for which the “relative binding free energy” value worked out at 0.06 kcal/mol.

For the sequence GCATGCACGTGAGTTG, the “relative binding free energy” value amounted to 0.15 kcal/mol.

On to GCTTCCACGTGTTTGT, for which the “relative binding free energy” value was 0.23 kcal/mol.

Consider TTGGTCACGTGGAGAA, for which the “relative binding free energy” value came out at 0.13 kcal/mol.

ATGGTCACGTGTTCGG: the “relative binding free energy” value turned out to be 0.07 kcal/mol.

In the case of CCTGTCACGTGTGTGA, the “relative binding free energy” value came to 0.06 kcal/mol.

With TAGTGCACGTGGTTGA, the “relative binding free energy” value is -0.06 kcal/mol.

Consider CGATGCACGTGAGGGT, for which the “relative binding free energy” value amounted to 0.22 kcal/mol.

In the case of TATATCACGTGTGGGC, the “relative binding free energy” value came out at 0.21 kcal/mol.

TTTACCACGTGGTAGG: the “relative binding free energy” value is -0.02 kcal/mol.

As for TGCGGCACGTGTTGGG, the “relative binding free energy” value was -0.09 kcal/mol.

AGGAACACGTGATTTG: the “relative binding free energy” value is 0.18 kcal/mol.

As to GTAGTCACGTGAAAAG, the “relative binding free energy” value is 0.45 kcal/mol.

For CTGGGCACGTGGTCCG, the “relative binding free energy” value was -0.18 kcal/mol.

For CTGATCACGTGTAGTG, the “relative binding free energy” value was determined as 0.13 kcal/mol.

With GGGTTCACGTGATACG, the “relative binding free energy” value stood at 0.37 kcal/mol.

As for GTGGCCACGTGGCGTT, the “relative binding free energy” value is -0.08 kcal/mol.

Take GGTTGCACGTGTACAT: the “relative binding free energy” value came to 0.11 kcal/mol.

Take AGAGCCACGTGCGGGG: the “relative binding free energy” value was found to be 0.06 kcal/mol.

With GATCTCACGTGAAGGT, the “relative binding free energy” value stood at 0.55 kcal/mol.

Turning to AAGATCACGTGGTATA, the “relative binding free energy” value came to 0.22 kcal/mol.

Regarding TACTCCACGTGGTGTT, the “relative binding free energy” value amounted to 0.02 kcal/mol.

As to GGTTCCACGTGATAGG, the “relative binding free energy” value was determined as 0.13 kcal/mol.

As to AGCGTCACGTGGTGGT, the “relative binding free energy” value was determined as 0.03 kcal/mol.

As for ATGGGCACGTGCTGCG, the “relative binding free energy” value was -0.19 kcal/mol.

With GTGCTCACGTGGGTAG, the “relative binding free energy” value was found to be 0.16 kcal/mol.

As to GTTAGCACGTGTTGGT, the “relative binding free energy” value was 0.1 kcal/mol.

In the case of GTATCCACGTGGGTTT, the “relative binding free energy” value was -0.11 kcal/mol.

With AAAGTCACGTGTGTTT, the “relative binding free energy” value was 0.25 kcal/mol.

Turning to TTGGGCACGTGGGAAT, the “relative binding free energy” value is -0.22 kcal/mol.

On to GGAGCCACGTGGTTGT, for which the “relative binding free energy” value was -0.08 kcal/mol.

In the case of ATGTCCACGTGTGAGG, the “relative binding free energy” value is -0.03 kcal/mol.

Consider TTTGGCACGTGTGACA, for which the “relative binding free energy” value is -0.01 kcal/mol.

As for TCTTTCACGTGCATGT, the “relative binding free energy” value was determined as 0.31 kcal/mol.

On to CAGGGCACGTGCGAGG, for which the “relative binding free energy” value was -0.15 kcal/mol.

In the case of ATAGGCACGTGGGCTA, the “relative binding free energy” value was -0.33 kcal/mol.

On to ATGTACACGTGAATGA, for which the “relative binding free energy” value turned out to be 0.34 kcal/mol.

Take CGGAGCACGTGCAGGG: the “relative binding free energy” value was -0.08 kcal/mol.

Turning to CGCGTCACGTGGGTAT, the “relative binding free energy” value is -0.1 kcal/mol.

Take TGCGGCACGTGGTCTG: the “relative binding free energy” value was -0.23 kcal/mol.

In the case of TGCAGCACGTGTGATT, the “relative binding free energy” value amounted to 0.05 kcal/mol.

On to TGTTACACGTGTCTGG, for which the “relative binding free energy” value stood at 0.16 kcal/mol.

Turning to GAGTTCACGTGTTTAT, the “relative binding free energy” value was 0.28 kcal/mol.

In the case of TGCGGCACGTGTGGAT, the “relative binding free energy” value was -0.05 kcal/mol.

Consider AGGTGCACGTGTAGGA, for which the “relative binding free energy” value was -0.08 kcal/mol.

Regarding GTTACCACGTGTGGTG, the “relative binding free energy” value came out at 0.03 kcal/mol.

Consider ATCGGCACGTGGTTCT, for which the “relative binding free energy” value is -0.09 kcal/mol.

For the sequence ATTGGCACGTGTATAA, the “relative binding free energy” value is -0.13 kcal/mol.

As to TTTTCCACGTGTAGTT, the “relative binding free energy” value stood at 0.11 kcal/mol.

As for GTAGACACGTGAGGAT, the “relative binding free energy” value is 0.38 kcal/mol.

Regarding TTCTTCACGTGGGAGA, the “relative binding free energy” value was found to be 0.31 kcal/mol.

In the case of TGGTGCACGTGGTAGT, the “relative binding free energy” value is -0.05 kcal/mol.

For the sequence GGTATCACGTGGAGGC, the “relative binding free energy” value turned out to be 0.1 kcal/mol.

Take TCGTGCACGTGAGGTA: the “relative binding free energy” value stood at 0.17 kcal/mol.

In the case of ATCGTCACGTGATTGT, the “relative binding free energy” value turned out to be 0.16 kcal/mol.

Take ACAGTCACGTGATGGG: the “relative binding free energy” value was found to be 0.04 kcal/mol.

In the case of TAGGCCACGTGGGGTC, the “relative binding free energy” value was -0.17 kcal/mol.

Consider TGTGCCACGTGTGAAG, for which the “relative binding free energy” value turned out to be 0.03 kcal/mol.

With AAGGACACGTGTAGGT, the “relative binding free energy” value is 0.08 kcal/mol.

For the sequence TTGAACACGTGGTTTA, the “relative binding free energy” value is 0.04 kcal/mol.

Regarding GTGATCACGTGGTTTT, the “relative binding free energy” value worked out at 0.16 kcal/mol.

GAGGACACGTGTGATG: the “relative binding free energy” value turned out to be 0.16 kcal/mol.

On to GTTATCACGTGATTAG, for which the “relative binding free energy” value worked out at 0.37 kcal/mol.

In the case of TGTGTCACGTGGCCAG, the “relative binding free energy” value was -0.12 kcal/mol.

Take CTAGTCACGTGTTTTA: the “relative binding free energy” value was found to be 0.17 kcal/mol.

On to ATAATCACGTGTTGTT, for which the “relative binding free energy” value was 0.04 kcal/mol.

In the case of GGGTTCACGTGGTTCT, the “relative binding free energy” value was found to be 0.33 kcal/mol.
